Laboratory results as given in patent publication US20250002599A1 (NOVAROCK BIOTHERAPEUTICS, published 2025).
One block for each binder: values may come before it.

Columns and labels:
[1] = target: T1, human CD137 expressed on the cell surface of HEK293T cells (human, UniProt Q07011 24-255); experiment: immunofluorescence imaging binding assay on human CD137-expressing HEK293T cells; one concentration, not given
T1 construct: Stably or transiently transfected HEK293T cells; also on HEK293T and Jurkat T NFκB reporter cells; also called human CD137 (WT); 4-1BB

[2] = target: T2, human recombinant PD-L1 protein (Acro Biosystems, cat #: PD1-H5229) (human, UniProt Q9NZQ7 in part); experiment: SPR (Biacore3000), antibody captured by anti-human IgG on CM5, PD-L1 as analyte, 1:1 binding with mass transfer
T2 construct: Bought protein; also called human PD-L1; recombinant human PD-L1

[3] = target: T3, human CD137 (Sino Biological, cat #10041-H08H) (human, UniProt Q07011 24-186); experiment: SPR (Biacore3000), antibody captured by anti-human IgG on CM5, CD137 as analyte, 1:1 binding with mass transfer
T3 construct: Bought protein used as the analyte in SPR; also called CD137 antigen in Biacore

[4] = target: T1, human CD137 expressed on the cell …; experiment: flow cytometry on human CD137-expressing HEK293T cells (target as in the panel title and the legend paragraph 226); one concentration, not given

T2 sequence (Q9NZQ7 19-238 limits assumed): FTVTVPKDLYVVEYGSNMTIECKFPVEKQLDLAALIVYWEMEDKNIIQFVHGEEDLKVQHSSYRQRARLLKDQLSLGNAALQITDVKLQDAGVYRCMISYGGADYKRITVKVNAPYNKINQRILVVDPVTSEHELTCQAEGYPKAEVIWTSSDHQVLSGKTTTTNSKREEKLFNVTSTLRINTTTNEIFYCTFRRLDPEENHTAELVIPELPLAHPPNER

binding result [1]: binds
B1: 1923Ab11 (bispecific antibody, human IgG1, kappa)
heavy: QVQLVQSGAEVKKPGASVKVSCKASGYTFTSYDINWVRQATGQGLEWMGWMNPNSGITGYAQRFQGRVTMTRDTSISTAYMELSSLRSEDTAVYYCARHRWGKGYLDLWGRGTLVTVSSASTKGPSVFPLAPSSKSTSGGTAALGCLVKDYFPEPVTVSWNSGALTSGVHTFPAVLQSSGLYSLSSVVTVPSSSLGTQTYICNVNHKPSNTKVDKKV[gap - human IgG1 Fc with changes]GGGSGGGGSGGGGSSYELTQPPSVSVSPGQTARITCSGDALPKKYAYWYQQKSGQAPVLVIYEDSKRPSGIPERFSGSSSGTMATLTISGAQVEDEADYYCYSTDSSGNRVFGGGTKLTVLGGGGSGGGGSGGGGSQVQLVESGGGVVQPGRSLRLSCAASGFTFSNYGMHWVRQAPGKGLEWVAIIWYDGINKYYADSVKGRFTISRDNSKNTLYLQMNSLKAEDTAVYYCARDQDYDILTGYYKEDYFDFWGQGTLVTVSS
light: EIVMAQSPATLSLSPGERATLSCRASQSVSSSYLSWFQQKPGQAPRLLIYGASTRATGIPARFGGSGSGTDFTLTISSLQPEDFAVYYCQQDYNLPYTFGQGTKLEIKRTVAAPSVFIFPPSDEQLKSGTASVVCLLNNFYPREAKVQWKVDNALQSGNSQESVTEQDSKDSTYSLSSTLTLSKADYEKHKVYACEVTHQGLSSPVTKSFNRGEC
notes: 1923Ab3 IgG1 L234A L235A scaffold with 1923Ab4 scFv (VL-VH) at the C-terminus of each heavy chain; also called PD-L1/CD137 bispecific 1923Ab11

Kd [2]: 3.49 nM
koff [2]: 0.0023 s⁻¹
kon [2]: 659000 M⁻¹ s⁻¹
Kd [3]: 22.3 nM
koff [3]: 0.038 s⁻¹
kon [3]: 1.7e+06 M⁻¹ s⁻¹
B2: 1923Ab18 (bispecific antibody, human IgG1, kappa)
heavy: QVQLVQSGAEVKKPGASVKVSCKASGYTFTSYDINWVRQATGQGLEWMGWMNPNSGITGYAQRFQGRVTMTRDTSISTAYMELSSLRSEDTAVYYCARHRWGKGYLDLWGRGTLVTVSSASTKGPSVFPLAPSSKSTSGGTAALGCLVKDYFPEPVTVSWNSGALTSGVHTFPAVLQSSGLYSLSSVVTVPSSSLGTQTYICNVNHKPSNTKVDKKV[gap - human IgG1 Fc with changes]GGGSGGGGSGGGGSQVQLVESGGGVVQPGRSLRLSCAASGFTFSNYGMHWVRQAPGKCLEWVAIIWYDGINKYYADSVKGRFTISRDNSKNTLYLQMNSLKAEDTAVYYCARDQDYDILTGYYKEDYFDFWGQGTLVTVSSGGGGSGGGGSGGGGSGGGGSSYELTQPPSVSVSPGQTARITCSGDALPKKYAYWYQQKSGQAPVLVIYEDSKRPSGIPERFSGSSSGTMATLTISGAQVEDEADYYCYSTDSSGNRVFGCGTKLTVL
light: B1 light
notes: 1923Ab3 IgG1 L234A L235A scaffold with disulfide-stabilized 1923Ab4 scFv (VH-VL) at the C-terminus of each heavy chain; also called PD-L1/CD137 bispecific 1923Ab18

binding result [1]: binds
B3: 1923Ab7 (other)
heavy: QVQLVQSGAEVKKPGASVKVSCKASGYTFTSYDINWVRQATGQGLEWMGWMNPNSGITGYAQRFQGRVTMTRDTSISTAYMELSSLRSEDTAVYYCARHRWGKGYLDLWGRGTLVTVSSASTKGPSVFPLAPSSKSTSGGTAALGCLVKDYFPEPVTVSWNSGALTSGVHTFPAVLQSSGLYSLSSVVTVPSSSLGTQTYICNVNHKPSNTKVDKKV[gap - human IgG1 Fc with changes]GGGSGGGGSGGGGSQVQLVESGGGVVQPGRSLRLSCAASGFTFSNYGMHWVRQAPGKGLEWVAIIWYDGINKYYADSVKGRFTISRDNSKNTLYLQMNSLKAEDTAVYYCARDQDYDILTGYYKEDYFDFWGQGTLVTVSSGGGGSGGGGSGGGGSSYELTQPPSVSVSPGQTARITCSGDALPKKYAYWYQQKSGQAPVLVIYEDSKRPSGIPERFSGSSSGTMATLTISGAQVEDEADYYCYSTDSSGNRVFGGGTKLTVL
light: EIVMAQSPATLSLSPGERATLSCRASQSVSSSYLSWFQQKPGQAPRLLIYGASTRATGIPARFGGSGSGTDFTLTISSLQPEDFAVYYCQQDYNLPYTFGQGTKLEIKRTVAAPSVFIFPPSDEQLKSGTASVVCLLNNFYPREAKVQWKVDNALQSGNSQESVTEQDSKDSTYSLSSTLTLSKADYEKHKVYACEVTHQGLSSPVTKSFNRGECGGGGSGGGGSGGGGSTIPPHVQKSVNNDMIVTDNNGAVKFPQLCKFCDVRFSTCDNQKSCMSNCSITSICEKPQEVCVAVWRKNDENITLETVCHDPKLPYHDFILEDAASPKCIMKEKKKPGETFFMCSCSSDECNDNIIFSEEYNTSNPD
notes: also called PD-L1/TGFβ/CD137 trispecific 1923Ab7

Kd [2]: 2.22 nM
koff [2]: 0.00267 s⁻¹
kon [2]: 1.2e+06 M⁻¹ s⁻¹
Kd [3]: 19.3 nM
koff [3]: 0.0483 s⁻¹
kon [3]: 2.5e+06 M⁻¹ s⁻¹
B4: 1923Ab17 (other)
heavy: QVQLVQSGAEVKKPGASVKVSCKASGYTFTSYDINWVRQATGQGLEWMGWMNPNSGITGYAQRFQGRVTMTRDTSISTAYMELSSLRSEDTAVYYCARHRWGKGYLDLWGRGTLVTVSSASTKGPSVFPLAPSSKSTSGGTAALGCLVKDYFPEPVTVSWNSGALTSGVHTFPAVLQSSGLYSLSSVVTVPSSSLGTQTYICNVNHKPSNTKVDKKV[gap - human IgG1 Fc with changes]GGGSGGGGSGGGGSQVQLVESGGGVVQPGRSLRLSCAASGFTFSNYGMHWVRQAPGKCLEWVAIIWYDGINKYYADSVKGRFTISRDNSKNTLYLQMNSLKAEDTAVYYCARDQDYDILTGYYKEDYFDFWGQGTLVTVSSGGGGSGGGGSGGGGSGGGGSSYELTQPPSVSVSPGQTARITCSGDALPKKYAYWYQQKSGQAPVLVIYEDSKRPSGIPERFSGSSSGTMATLTISGAQVEDEADYYCYSTDSSGNRVFGCGTKLTVL
light: B3 light
notes: also called PD-L1/TGFβ/CD137 trispecific 1923Ab17

binding result [1]: binds
B5: 1923Ab9 (other)
heavy 1: QVQLVQSGAEVKKPGASVKVSCKASGYTFTSYDINWVRQATGQGLEWMGWMNPNSGITGYAQRFQGRVTMTRDTSISTAYMELSSLRSEDTAVYYCARHRWGKGYLDLWGRGTLVTVSSASTKGPSVFPLAPSSKSTSGGTAALGCLVKDYFPEPVTVSWNSGALTSGVHTFPAVLQSSGLYSLSSVVTVPSSSLGTQTYICNVNHKPSNTKVDKKV[gap - human IgG1 Fc with changes]GGGSGGGGSGGGGSQVQLVESGGGVVQPGRSLRLSCAASGFTFSNYGMHWVRQAPGKGLEWVAIIWYDGINKYYADSVKGRFTISRDNSKNTLYLQMNSLKAEDTAVYYCARDQDYDILTGYYKEDYFDFWGQGTLVTVSSGGGGSGGGGSGGGGSSYELTQPPSVSVSPGQTARITCSGDALPKKYAYWYQQKSGQAPVLVIYEDSKRPSGIPERFSGSSSGTMATLTISGAQVEDEADYYCYSTDSSGNRVFGGGTKLTVL
heavy 2: QVQLVQSGAEVKKPGASVKVSCKASGYTFTSYDINWVRQATGQGLEWMGWMNPNSGITGYAQRFQGRVTMTRDTSISTAYMELSSLRSEDTAVYYCARHRWGKGYLDLWGRGTLVTVSSASTKGPSVFPLAPSSKSTSGGTAALGCLVKDYFPEPVTVSWNSGALTSGVHTFPAVLQSSGLYSLSSVVTVPSSSLGTQTYICNVNHKPSNTKVDKKVEPKSCDKTHTCPPCPAPEAAGGPSVFLFPPKPKDTLMISRTPEVTCVVVDVSHEDPEVKFNWYVDGVEVHNAKTKPREEQYNSTYRVVSVLTVLHQDWLNGKEYKCKVSNKALPAPIEKTISKAKGQPREPQVCTLPPSRDELTKNQVSLSCAVKGFYPSDIAVEWESNGQPENNYKTTPPVLDSDGSFFLVSKLTVDKSRWQQGNVFSCSVMHEALHNHYTQKSLSLSPGK
light: B3 light
notes: monovalent for CD137; also called PD-L1/TGFβ/CD137 trispecific 1923Ab9

binding result [1]: binds
B6: 1923Ab10 (other)
heavy 1: QVQLVQSGAEVKKPGASVKVSCKASGYTFTSYDINWVRQATGQGLEWMGWMNPNSGITGYAQRFQGRVTMTRDTSISTAYMELSSLRSEDTAVYYCARHRWGKGYLDLWGRGTLVTVSSASTKGPSVFPLAPSSKSTSGGTAALGCLVKDYFPEPVTVSWNSGALTSGVHTFPAVLQSSGLYSLSSVVTVPSSSLGTQTYICNVNHKPSNTKVDKKV[gap - human IgG1 Fc with changes]GGGSGGGGSGGGGSSYELTQPPSVSVSPGQTARITCSGDALPKKYAYWYQQKSGQAPVLVIYEDSKRPSGIPERFSGSSSGTMATLTISGAQVEDEADYYCYSTDSSGNRVFGGGTKLTVLGGGGSGGGGSGGGGSQVQLVESGGGVVQPGRSLRLSCAASGFTFSNYGMHWVRQAPGKGLEWVAIIWYDGINKYYADSVKGRFTISRDNSKNTLYLQMNSLKAEDTAVYYCARDQDYDILTGYYKEDYFDFWGQGTLVTVSS
heavy 2: B5 heavy 2
light: B3 light
notes: Asymmetric trispecific as 1923Ab9 but with the 1923Ab4 scFv in VL-VH order; monovalent for CD137; also called PD-L1/TGFβ/CD137 trispecific 1923Ab10

binding result [1]: binds
B7: 1923Ab8 (bispecific antibody, human IgG1, kappa)
heavy: QVQLVQSGAEVKKPGASVKVSCKASGYTFTSYDINWVRQATGQGLEWMGWMNPNSGITGYAQRFQGRVTMTRDTSISTAYMELSSLRSEDTAVYYCARHRWGKGYLDLWGRGTLVTVSSASTKGPSVFPLAPSSKSTSGGTAALGCLVKDYFPEPVTVSWNSGALTSGVHTFPAVLQSSGLYSLSSVVTVPSSSLGTQTYICNVNHKPSNTKVDKKV[gap - human IgG1 Fc with changes]GGGSGGGGSGGGGSQVQLVESGGGVVQPGRSLRLSCAASGFTFSNYGMHWVRQAPGKGLEWVAIIWYDGINKYYADSVKGRFTISRDNSKNTLYLQMNSLKAEDTAVYYCARDQDYDILTGYYKEDYFDFWGQGTLVTVSSGGGGSGGGGSGGGGSSYELTQPPSVSVSPGQTARITCSGDALPKKYAYWYQQKSGQAPVLVIYEDSKRPSGIPERFSGSSSGTMATLTISGAQVEDEADYYCYSTDSSGNRVFGGGTKLTVL
light: B1 light
notes: 1923Ab3 IgG1 L234A L235A scaffold with 1923Ab4 scFv (VH-VL) at the C-terminus of each heavy chain; also called PD-L1/CD137 bispecific 1923Ab8

binding result [4]: binds
B8: 1923Ab16 (other)
heavy: QVQLVESGGGVVQPGRSLRLSCAASGFTFSNYGMHWVRQAPGKGLEWVAIIWYDGINKYYADSVKGRFTISRDNSKNTLYLQMNSLKAEDTAVYYCARDQDYDILTGYYKEDYFDFWGQGTLVTVSSASTKGPSVFPLAPSSKSTSGGTAALGCLVKDYFPEPVTVSWNSGALTSGVHTFPAVLQSSGLYSLSSVVTVPSSSLGTQTYICNVNHKPSNTKVDKKV[gap - human IgG1 Fc with changes]GGGSGGGGSGGGGSEIVMAQSPATLSLSPGERATLSCRASQSVSSSYLSWFQQKPGQAPRLLIYGASTRATGIPARFGGSGSGTDFTLTISSLQPEDFAVYYCQQDYNLPYTFGQGTKLEIKGGGGSGGGGSGGGGSQVQLVQSGAEVKKPGASVKVSCKASGYTFTSYDINWVRQATGQGLEWMGWMNPNSGITGYAQRFQGRVTMTRDTSISTAYMELSSLRSEDTAVYYCARHRWGKGYLDLWGRGTLVTVSS
light: SYELTQPPSVSVSPGQTARITCSGDALPKKYAYWYQQKSGQAPVLVIYEDSKRPSGIPERFSGSSSGTMATLTISGAQVEDEADYYCYSTDSSGNRVFGGGTKLTVLGQPKANPTVTLFPPSSEELQANKATLVCLISDFYPGAVTVAWKADGSPVKAGVETTKPSKQSNNKYAASSYLSLTPEQWKSHRSYSCQVTHEGSTVEKTVAPTECSGGGGSGGGGSGGGGSTIPPHVQKSVNNDMIVTDNNGAVKFPQLCKFCDVRFSTCDNQKSCMSNCSITSICEKPQEVCVAVWRKNDENITLETVCHDPKLPYHDFILEDAASPKCIMKEKKKPGETFFMCSCSSDECNDNIIFSEEYNTSNPD
notes: Trispecific: 1923Ab4 IgG1 L234A L235A scaffold, 1923Ab3 scFv at the C-terminus of each heavy chain, TGFβRII ECD at the C-terminus of each light chain; also called CD137/TGFβ/PD-L1 trispecific 1923Ab16; CD137/TGFβRII/PD-L1 trispecific
